Among the data in PubChem BioAssay AID488969 (Vanderbilt High Throughput Screening Facility, 2010) are z-score values, retold here.

Over roughly 110,000 compounds, “z-score” has its median near -0.1; the highest 2% begin near 2. This is one part of the list. The source made the active and inactive calls.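 The calls were made as follows: active = z-score in the third read window above 3 or below -3; inactive = the rest.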

The assay concerns the target Metabotropic glutamate receptor 8 (Rattus norvegicus) (UniProt P70579). The assay can be described thus: rat mGluR8 modulators via GIRK flux, primary screen, cell-based, thallium flux, HTS (AID 488969). To be noted: HEK293 rat mGluR8, GIRK (G protein-gated inwardly rectifying potassium channel) thallium flux, FluoZin2; at 10 µM; stronger effect = higher value; submaximal glutamate (EC20) added with thallium.
Chain of UniProt P70579 (P70579 whole entry, looked up): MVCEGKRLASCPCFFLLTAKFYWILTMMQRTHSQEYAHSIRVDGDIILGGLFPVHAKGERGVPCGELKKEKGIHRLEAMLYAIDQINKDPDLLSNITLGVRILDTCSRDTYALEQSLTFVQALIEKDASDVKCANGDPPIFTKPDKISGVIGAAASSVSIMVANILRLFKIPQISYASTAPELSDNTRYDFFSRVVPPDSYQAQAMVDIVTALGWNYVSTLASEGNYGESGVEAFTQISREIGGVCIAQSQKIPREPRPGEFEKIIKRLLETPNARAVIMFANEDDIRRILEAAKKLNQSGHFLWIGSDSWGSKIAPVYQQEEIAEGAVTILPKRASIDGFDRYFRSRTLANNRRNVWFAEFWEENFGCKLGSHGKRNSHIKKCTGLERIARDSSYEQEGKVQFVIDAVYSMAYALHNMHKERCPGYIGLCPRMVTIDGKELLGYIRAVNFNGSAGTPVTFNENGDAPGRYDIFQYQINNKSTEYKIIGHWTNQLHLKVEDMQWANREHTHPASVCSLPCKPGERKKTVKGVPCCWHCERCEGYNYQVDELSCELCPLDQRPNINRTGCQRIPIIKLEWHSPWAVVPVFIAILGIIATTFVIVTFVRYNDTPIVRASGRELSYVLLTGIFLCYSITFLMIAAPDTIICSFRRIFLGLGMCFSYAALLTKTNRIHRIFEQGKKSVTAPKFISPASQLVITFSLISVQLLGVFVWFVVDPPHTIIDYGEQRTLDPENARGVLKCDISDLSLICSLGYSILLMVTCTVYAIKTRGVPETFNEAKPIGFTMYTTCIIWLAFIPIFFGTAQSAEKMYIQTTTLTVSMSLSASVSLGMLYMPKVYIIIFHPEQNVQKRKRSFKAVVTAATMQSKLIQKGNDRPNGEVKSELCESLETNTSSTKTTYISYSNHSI
For `CCC(CC)C(=O)Nc1cccc(C(=O)Nc2ccc(OC)cc2[N+](=O)[O-])c1`, the z-score was -0.105. The same measure for `COc1ccc(Nc2nc(N)nc(CSc3nccc(C)n3)n2)cc1`: 0.0732; for `Cn1cccc1C(=O)NC(=O)CSc1nc2ccccc2s1`: -0.728. The same measure for `CCOc1cc(C2CC(=O)c3c(ccc4ccccc34)N2)ccc1O` (centres undefined): -0.494; for `CCCCNc1ccc2nsnc2c1[N+](=O)[O-]`: -0.137; for `COc1ccc(C(=O)c2ccccc2)cc1Br`: -0.139. The same measure for `CCn1cc(/C=C2\SC(=O)N(CC(=O)Nc3ccc4c(c3)OCO4)C2=O)c2ccccc21`: -0.0436. In turn, `O=C(C1CCCN(S(=O)(=O)c2cccc3nonc23)C1)N1CCN(c2ccccc2)CC1` (centres undefined) registered a z-score of 0.485.

On to `O=C(CCSc1nc(-c2ccc3c(c2)OCO3)cc(C(F)(F)F)n1)NCc1ccccc1`, for which the z-score is -0.215. For `COc1ccc(-n2c(C)cc(C(=O)COC(=O)c3cc(NC(=O)c4cccs4)c(OC)c(OC)c3)c2C)cc1` the value was 0.389. In the case of `O=c1c2cccc3c2c(nn1CN1CCOCC1)-c1ccccc1-3`, the z-score was -1.08. The same measure for `COc1cccc2c(=O)n(CC(=O)N3CCCc4ccccc43)ccc12`: -0.129. As to `O=C1NCCc2cc3c(cc21)OCO3`, the z-score was -0.197. `Cc1ccc(-c2csc3nc(C)n(N)c(=O)c23)o1` returned a z-score of 0.0499. On to `CCn1cnc2c1c(=O)n(CC(=O)Nc1ccc3c(c1)OC(F)(F)O3)c(=O)n2Cc1ccccc1`, for which the z-score worked out at 0.285. `CN1CCN(Cc2oc(CO)cc(=O)c2O)CC1` showed a z-score of -0.42. The same measure for `Cc1ccc(-n2nnnc2SCC(=O)NCCC2=CCCCC2)c(C)c1`: 0.08; for `O=C(Cc1c(C(=O)O)[nH]c2ccc(Cl)cc12)Nc1ccc2c(c1)OCCO2`: 0.0508. For `N#C/C(=C(/O)CN1C(=O)c2ccccc2C1=O)c1nc2ccccc2[nH]1` the value was -0.113. The same measure for `COc1ccccc1CNCC(O)Cn1c2ccccc2c2ccccc21` (centres undefined): 0.425. `CC(CO)(CO)NCc1ccc(-c2ccccc2)cc1` showed a z-score of 0.171. `Cc1ccc(S(=O)(=O)N2CCCC2C(=O)Nc2nc3c(s2)CCCC3)cc1` (centres undefined) returned a z-score of -0.735.

The compound `Cc1cccc(N2CCN(S(=O)(=O)c3ccc4c(c3)CCC(=O)N4)CC2C)c1` (centres undefined) had a z-score of -0.531. In turn, `O=C(CCn1cnc2ccccc2c1=O)Nc1ccc(S(=O)(=O)N2CCCCC2)cc1` showed a z-score of -0.448. In turn, `O=Cc1cc2ccccc2nc1SCc1ccc(Cl)cc1` displayed a z-score of -0.116.

In turn, `COc1ccc(S(=O)(=O)N2Cc3ccccc3CC2C(=O)O)cc1OC` (centres undefined) returned a z-score of -0.354. Regarding `O=S(=O)(N/N=C/c1cn(Cc2ccccc2)c2ccccc12)c1ccccc1`, the z-score is -0.216. For `COC(=O)C1CCN(C(=O)COc2cc3sc(C)nc3c3sccc23)CC1` the value was -1.34; for `C=CCN=Cc1sc2ccc(OCC)cc2c1O`, 0.0996; for `Cc1cc(-c2n[nH]c(=S)n2/N=C/c2ccc(Br)s2)n[nH]1`, active: 4.55. In the case of `COc1ccccc1NC(=O)CSc1nnc(C)n1CCc1ccccc1`, the z-score was -0.918. The compound `CS(=O)(=O)N1CCC(C(=O)Nc2ccccc2Sc2ccccc2)CC1` displayed a z-score of 0.457.

For `Cc1ccc(S(=O)(=O)NCC2CCC(C(=O)NCc3ccco3)CC2)cc1` (centres undefined), the z-score was -0.0755. The same measure for `Cc1sc(N/N=C/C=C/c2ccccc2)nc1-c1ccccc1`: 2.08e-05; for `CN(C)S(=O)(=O)c1ccc(C(=O)OCC(=O)Nc2ccccc2OC(F)F)cc1`: -0.187.

As for `O=C(NCCCNCCCNC(=O)c1ccccn1)c1ccccn1`, the z-score is -0.485. For `O=C(CSc1ccc2ccccc2c1Br)Nc1cccc(S(=O)(=O)NC2=NCCCCC2)c1` the value was active: 14.5. The same measure for `O=C(c1cnn2c1NC(c1ccc(Br)cc1)CC2C(F)(F)F)N1CCN2CCCC2C1` (centres undefined): 0.508; for `COc1ccc(OC)c(-n2nnnc2SCC(=O)Nc2nc(C)c(C)s2)c1`: 0.197; for `CC(C)(C)CC(=O)Nc1ccc(Nc2ccccc2)cc1`: -0.312. Consider `CCN(CC)C(=O)CN(C#N)c1nc(NC(C)C)nc(NC(C)C)n1`, for which the z-score was determined as 0.172. The same measure for `COC(=O)c1ccc(C2C(Oc3ccc(OC)cc3)C(=O)N2CCc2ccc(F)cc2)cc1` (centres undefined): -0.263. For `O=C(c1ccc(Cl)s1)N1CCCC1` the value was 0.0802; for `CC(=O)NC(c1ccco1)c1ccc2cccnc2c1O` (centres undefined), -0.271. For `O=C(COc1ccc2c(c1)CCC2)NCc1ccc(Cl)cc1` the value was -0.106; for `COc1ccc(NC(=O)C(Sc2ccccc2)c2ccccc2)c(OC)c1` (centres undefined), 2.25; for `O=C(Nc1cn(-c2ccccc2)nc1-c1ccc(F)cc1)c1ccccc1`, -0.338. As to `CN(C)c1ccc(N/C=C/C(=O)C(C)(C)C)cc1`, the z-score was -0.351.

Regarding `O=C(Nc1ccccc1-c1ccccc1)C1CCCN(c2ncccn2)C1` (centres undefined), the z-score is -1.07. `Cc1cc(C)cc(NC(=O)c2ccc(S(=O)(=O)C(F)F)cc2)c1` came in with a z-score of -0.06.

The compound `Cc1ccc(N(Cc2ccc([N+](=O)[O-])cc2)C(=O)c2ccco2)cc1` returned a z-score of -0.563. For `CC(C)(C)c1ccc(-c2nnc(NC(=O)c3ccccc3)s2)cc1` the value was 0.203; for `COc1ccc2nc(N3CCCC(C(=O)NCCCN4CCN(C)CC4)C3)sc2c1` (centres undefined), 0.495; for `CCOc1ccc(OCC)c(NS(=O)(=O)c2ccc3c(c2)n(C)c(=O)c(=O)n3C)c1`, 0.166. The same measure for `CCOC(=O)C1=C(C)NC2=C(C(=O)CCC2)C1c1ccsc1` (centres undefined): -0.544; for `N#Cc1ccc(N/N=C/c2cn(-c3ccccc3)nc2-c2ccccc2)c([N+](=O)[O-])c1`: -0.163; for `O=C(c1cc2ccccc2oc1=O)N(Cc1cccs1)C1CCS(=O)(=O)C1` (centres undefined): -0.217. The same measure for `CCOC(=O)Cn1c(=O)oc2cc(S(=O)(=O)N3CCc4ccccc43)ccc21`: -0.295. `COC(=O)c1ccc(-n2cncn2)c(F)c1` gave a z-score of 0.26. The same measure for `COc1ccc2nc(-c3ccccc3)cc(OC)c2c1`: -0.624. Consider `Oc1c(C(c2ccccc2)N2CCc3ccccc3C2)sc2ncnn12` (centres undefined), for which the z-score came out at 0.127. For `C[n+]1ccccc1C1CCCC/C1=N\Nc1ccc([N+](=O)[O-])cc1[N+](=O)[O-]` (centres undefined) the value was -0.113; for `NS(=O)(=O)c1cccc(NC(=O)CSc2ncc(C(F)(F)F)cc2Cl)c1`, 0.0638. The same measure for `Cc1ccc(C)c(Cn2nnc3c(=O)[nH]c(C4CCN(C(=O)c5cccs5)CC4)nc32)c1`: -0.45.

`CC(C)C(NC(=O)CSc1ccc(Cl)cc1)C(C)C` registered a z-score of 0.0234. For `Cc1cccc(C(=O)NC(=S)NCc2cccnc2)c1` the value was 0.247.

On to `Cc1cccc(Nc2c([N+](=O)[O-])c(=O)n(C)c3ccccc23)c1`, for which the z-score is -0.787. For `CCOC(=O)N1C=CC(C)=C[C@@H]2[C@@H](N3C(=O)c4ccccc4C3=O)C(=O)N21` the value was -0.466. On to `CCCCNC(=O)CN(CCc1ccccc1)S(C)(=O)=O`, for which the z-score was -0.0858.
